From the GPR68 mutational scans of Howard et al. (2025) come the findings set out here.

Scores with a large standard error are left out. Not listed are two conditions whose scores span a narrow range. Read del as a deletion of the residues named and ins as an insertion between two positions. For some of these results: The data file names ogerin without a concentration.

B1: GPR68, Q15743 (parent)
chain: MGNITADNSSMSCTIDHTIHQTLAPVVYVTVLVVGFPANCLSLYFGYLQIKARNELGVYLCNLTVADLFYICSLPFWLQYVLQHDNWSHGDLSCQVCGILLYENIYISVGFLCCISVDRYLAVAHPFRFHQFRTLKAAVGVSVVIWAKELLTSIYFLMHEEVIEDENQHRVCFEHYPIQAWQRAINYYRFLVGFLFPICLLLASYQGILRAVRRSHGTQKSRKDQIQRLVLSTVVIFLACFLPYHVLLLVRSVWEASCDFAKGVFNAYHFSLLLTSFNCVADPVLYCFVSETTHRDLARLRGACLAFLTCSRTGRAREAYPLGAPEASGKSGAQGEEPELLTKLHPAFQTPNSPGSGGFPTGRLA

Variants of B1 are the subject of data set [1]. The experiment in a line: cAMP reporter score (Enrich2 score, wild type = 0); higher = more signal; HEK293T, FACS bins.
Data set [2] covers variants of B1. In words: surface expression score (Enrich2 score, wild type = 0); higher = more signal; HEK293T, FACS bins.

With G193K, the cAMP reporter score is -1 in data set [1] (pH 5.5); -0.403 in data set [1] (pH 6); -1.68 in data set [1] (pH 6, modulator: ogerin); -1.12 in data set [1] (pH 6.5, modulator: ogerin). Moreover, the surface expression score in data set [2] was -2.79.

With G193D, the cAMP reporter score in data set [1] (pH 5.5) is -1; in data set [1] (pH 6, modulator: ogerin) it was -0.746; in data set [1] (pH 6.5, modulator: ogerin) it was -2.9. The surface expression score in data set [2] amounted to 1.19.

Turning to G193F, the cAMP reporter score in data set [1] (pH 5.5) was -0.975; in data set [1] (pH 6), -0.441; in data set [1] (pH 6.5, modulator: ogerin) it was -0.733. Also, the surface expression score in data set [2] is -1.59.

Consider G193M, for which the cAMP reporter score in data set [1] (pH 5.5) was -1.94; in data set [1] (pH 6) it was -0.564; in data set [1] (pH 6, modulator: ogerin), -0.88; in data set [1] (pH 6.5, modulator: ogerin), -1.07. Besides, the surface expression score in data set [2] is -2.37.

G193E: the cAMP reporter score in data set [1] (pH 5.5) is -0.585; in data set [1] (pH 6), -0.56; in data set [1] (pH 6, modulator: ogerin) it was -0.735; in data set [1] (pH 6.5, modulator: ogerin), -0.708. The surface expression score in data set [2] was -0.483.

G193V: the cAMP reporter score is -1.71 in data set [1] (pH 5.5); -1.16 in data set [1] (pH 6); -1.65 in data set [1] (pH 6, modulator: ogerin); -1.45 in data set [1] (pH 6.5, modulator: ogerin). Further, the surface expression score in data set [2] is -2.37.

As to R183_A184insGSG, the cAMP reporter score in data set [1] (pH 5.5) was -0.713; in data set [1] (pH 6), -0.542; in data set [1] (pH 6, modulator: ogerin) it was -1.13; in data set [1] (pH 6.5, modulator: ogerin), -1.21. Moreover, the surface expression score in data set [2] was -1.66.

In the case of F190_L191insG, the cAMP reporter score was -1.52 in data set [1] (pH 5.5) and -1.76 in data set [1] (pH 6). The surface expression score in data set [2] is -2.68.

As to V192_G193insG, the cAMP reporter score in data set [1] (pH 5.5) was -1.22; in data set [1] (pH 6) it was -1.18; in data set [1] (pH 6, modulator: ogerin), -1.63; in data set [1] (pH 6.5, modulator: ogerin), -1.18. In addition, the surface expression score in data set [2] is -2.6.

For the variant N186_Y188del, the cAMP reporter score in data set [1] (pH 5.5) was -1.91; in data set [1] (pH 6.5, modulator: ogerin) it was -0.898. The surface expression score in data set [2] was -1.95.

Turning to Q182_A184del, the cAMP reporter score is -2.08 in data set [1] (pH 5.5); -1.59 in data set [1] (pH 6); -1.81 in data set [1] (pH 6, modulator: ogerin); -1.32 in data set [1] (pH 6.5, modulator: ogerin). Also, the surface expression score in data set [2] is -1.64.

Regarding R183_A184del, the cAMP reporter score in data set [1] (pH 5.5) is -0.853; in data set [1] (pH 6) it was -0.848; in data set [1] (pH 6.5, modulator: ogerin), -2.35. Besides, the surface expression score in data set [2] is -2.85.

With I185_N186insGS, the cAMP reporter score was -1.34 in data set [1] (pH 5.5); -1.66 in data set [1] (pH 6); -0.766 in data set [1] (pH 6, modulator: ogerin); -1.01 in data set [1] (pH 6.5, modulator: ogerin). Moreover, in data set [2], the surface expression score was -3.05.

With Y187_Y188insGSG, the cAMP reporter score in data set [1] (pH 5.5) was -1.66; in data set [1] (pH 6) it was -0.971; in data set [1] (pH 6, modulator: ogerin), -1.7; in data set [1] (pH 6.5, modulator: ogerin), -1.6. Moreover, the surface expression score in data set [2] was -2.29.

As to N186C, the cAMP reporter score was 0.749 in data set [1] (pH 5.5); -0.377 in data set [1] (pH 6); 0.873 in data set [1] (pH 6, modulator: ogerin); -0.133 in data set [1] (pH 6.5, modulator: ogerin). Further, the surface expression score in data set [2] was -1.12.

With N186Y, the cAMP reporter score is -0.428 in data set [1] (pH 5.5); 0.071 in data set [1] (pH 6); 0.647 in data set [1] (pH 6, modulator: ogerin); -0.556 in data set [1] (pH 6.5, modulator: ogerin). Moreover, the surface expression score in data set [2] turned out to be 0.085.

With N186R, the cAMP reporter score was -1.11 in data set [1] (pH 5.5); -0.287 in data set [1] (pH 6); -0.772 in data set [1] (pH 6, modulator: ogerin); 0.084 in data set [1] (pH 6.5, modulator: ogerin). Further, in data set [2], the surface expression score is -2.28.

In the case of N186E, the cAMP reporter score was -1.64 in data set [1] (pH 5.5); -0.817 in data set [1] (pH 6); -2.22 in data set [1] (pH 6.5, modulator: ogerin). Moreover, in data set [2], the surface expression score is -2.43.

For N186H, the cAMP reporter score was -1.15 in data set [1] (pH 5.5); -1.6 in data set [1] (pH 6); -0.532 in data set [1] (pH 6, modulator: ogerin); -1.56 in data set [1] (pH 6.5, modulator: ogerin). Moreover, the surface expression score in data set [2] was -0.959.

In the case of N186K, the cAMP reporter score in data set [1] (pH 5.5) was -1.37; in data set [1] (pH 6) it was -1.09; in data set [1] (pH 6, modulator: ogerin) it was -1.13; in data set [1] (pH 6.5, modulator: ogerin) it was -1.06. The surface expression score in data set [2] is -2.28.

N186P: the cAMP reporter score was -1.3 in data set [1] (pH 5.5) and -0.623 in data set [1] (pH 6.5, modulator: ogerin). Besides, in data set [2], the surface expression score is -2.76.

Regarding N186F, the cAMP reporter score in data set [1] (pH 5.5) was 1.15; in data set [1] (pH 6), -0.035; in data set [1] (pH 6, modulator: ogerin), 1.12; in data set [1] (pH 6.5, modulator: ogerin), 1.36. Also, the surface expression score in data set [2] amounted to 2.59.

Take N186I: the cAMP reporter score in data set [1] (pH 5.5) was -0.068; in data set [1] (pH 6) it was -1.01; in data set [1] (pH 6, modulator: ogerin), -0.259; in data set [1] (pH 6.5, modulator: ogerin), 0.431. Besides, the surface expression score in data set [2] is -0.168.

For the variant N186Q, the cAMP reporter score in data set [1] (pH 5.5) is -0.412.

As for N186W, the cAMP reporter score is -2.52 in data set [1] (pH 5.5); 0.633 in data set [1] (pH 6); -0.729 in data set [1] (pH 6, modulator: ogerin). For the same variant, in data set [2], the surface expression score was -0.552.

Take N186M: the cAMP reporter score in data set [1] (pH 5.5) was 0.387; in data set [1] (pH 6), -1.02; in data set [1] (pH 6, modulator: ogerin), 0.203; in data set [1] (pH 6.5, modulator: ogerin), 1.53. Further, the surface expression score in data set [2] came out at 0.918.

Turning to N186T, the cAMP reporter score in data set [1] (pH 5.5) is -0.404; in data set [1] (pH 6, modulator: ogerin), -0.31; in data set [1] (pH 6.5, modulator: ogerin), -0.798. The surface expression score in data set [2] was -0.575.

Turning to N186V, the cAMP reporter score in data set [1] (pH 5.5) is 0.127; in data set [1] (pH 6), -0.765; in data set [1] (pH 6, modulator: ogerin), -0.169; in data set [1] (pH 6.5, modulator: ogerin), 0.086. In addition, in data set [2], the surface expression score was determined as 0.673.

As for N186A, the cAMP reporter score in data set [1] (pH 5.5) is 1.04; in data set [1] (pH 6), 1.35; in data set [1] (pH 6, modulator: ogerin), 1.03; in data set [1] (pH 6.5, modulator: ogerin), 0.861. The surface expression score in data set [2] was determined as 1.2.

As to N186S, the cAMP reporter score in data set [1] (pH 5.5) was 0.788; in data set [1] (pH 6), 2.42; in data set [1] (pH 6, modulator: ogerin) it was 1.24; in data set [1] (pH 6.5, modulator: ogerin), 2.93. Moreover, the surface expression score in data set [2] was -0.198.

For the variant N186D, the cAMP reporter score was 0.414 in data set [1] (pH 5.5); -0.605 in data set [1] (pH 6); -0.439 in data set [1] (pH 6.5, modulator: ogerin). Further, the surface expression score in data set [2] was -0.795.

N186L: the cAMP reporter score in data set [1] (pH 5.5) was 1.02; in data set [1] (pH 6) it was -0.156; in data set [1] (pH 6, modulator: ogerin), 1.33; in data set [1] (pH 6.5, modulator: ogerin), 1.32. In addition, the surface expression score in data set [2] was -0.411.

Turning to R189_F190insGS, the cAMP reporter score in data set [1] (pH 5.5) was -1.43; in data set [1] (pH 6) it was -3; in data set [1] (pH 6, modulator: ogerin) it was -1.84; in data set [1] (pH 6.5, modulator: ogerin), -1.8. The surface expression score in data set [2] is -1.96.
